Laboratory results: the supplement of paper PMC3334620
In all, about 33,000 sequences were measured (“E-score (-0.5 to 0.5)”: median about -0.011, highest 2% from about 0.28 on). This is one part of the list.

The sequences below were run against T1, Gcr1 (UniProt P07261) (assay: PBM E-score (8-mer binding enrichment) (E-score (-0.5 to 0.5)); higher = stronger / more preferred TF binding; most listed sequences are background and not binding sites). Details: protein concentration: 100 nM; construct: GST-full length.
T1 sequence: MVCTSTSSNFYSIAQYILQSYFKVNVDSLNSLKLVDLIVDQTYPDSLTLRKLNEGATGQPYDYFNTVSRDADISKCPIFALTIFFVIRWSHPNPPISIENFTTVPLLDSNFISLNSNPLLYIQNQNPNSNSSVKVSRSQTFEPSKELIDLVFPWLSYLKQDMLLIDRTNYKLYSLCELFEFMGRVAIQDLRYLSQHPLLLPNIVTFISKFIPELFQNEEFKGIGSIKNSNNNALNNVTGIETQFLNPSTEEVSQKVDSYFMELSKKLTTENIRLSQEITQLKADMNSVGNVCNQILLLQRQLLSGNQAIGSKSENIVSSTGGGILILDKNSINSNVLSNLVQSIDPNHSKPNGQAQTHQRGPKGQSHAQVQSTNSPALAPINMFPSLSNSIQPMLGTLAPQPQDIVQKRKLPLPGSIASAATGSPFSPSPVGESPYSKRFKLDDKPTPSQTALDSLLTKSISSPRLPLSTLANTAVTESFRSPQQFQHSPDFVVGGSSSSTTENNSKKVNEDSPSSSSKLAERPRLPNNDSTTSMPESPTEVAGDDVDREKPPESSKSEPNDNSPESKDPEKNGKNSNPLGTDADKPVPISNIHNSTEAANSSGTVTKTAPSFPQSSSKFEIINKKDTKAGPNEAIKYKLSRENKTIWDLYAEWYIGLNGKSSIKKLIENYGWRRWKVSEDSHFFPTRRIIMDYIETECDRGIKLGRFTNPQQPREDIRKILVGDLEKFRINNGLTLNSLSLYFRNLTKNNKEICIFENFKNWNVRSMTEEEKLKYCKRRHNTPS
Summary of the method: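 The E-score, a modified Wilcoxon-Mann-Whitney statistic, was computed by the Universal PBM Analysis Suite for every ungapped eight-base word pooled with its reverse complement. Scans behind it were normalised with masliner after bound GST-tagged yeast transcription factors were detected with fluorescent anti-GST. The proteins, at about 100-200 nM, had been applied to universal all-10-mer Agilent arrays made double-stranded by primer extension.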

Sequence	PBM E-score
GCGTTCCC	0.101
AGATCTGC	-0.0651
AGACTGCT	-0.124
AGTAATCG	-0.127
GTTGGTCA	0.0415
AACTAGCA	-0.0545
ACATCCTG	0.276
AAACATCT	0.122
GGTATCCA	0.267
AATCTGTA	-0.03
ATCACATC	-0.0167
AGCATAAG	0.0544
ACTTGATC	0.0531
GGACGTTA	0.0629
GTCCTACA	0.095
ATTCACCG	0.123
GTATCGAC	-0.238
CATTTAAC	0.0721
CTCGCCAC	-0.176
CCCAAGGA	-0.0185
ATCACCAT	0.0303
AACAATAA	0.017
CCGTCAAG	-0.068
CAACGGGG	-0.0353
GAGAGGGC	-0.212

Sequence	PBM E-score
ACCTCTGA	0.0306
AGTCTAAC	-0.144
AAACGCCG	0.0308
GCAACACA	-0.0842
AACCATGT	-0.0416
ACCGAATG	-0.00693
ACTAATTC	0.0751
CAAGGTGC	-0.0358
GACTAATC	-0.128
GTCCCAAC	0.165
GTAGAGTA	-0.149
GGTCACAA	-0.0508
ATCTTGGG	0.109
CCCCTGGC	-0.0685
CGAGATGA	-0.0306
CAGTGAAG	0.0369
AACCTGGC	0.0571
ACATCAGA	0.0395
AGTGATTC	0.0351
ACGGTAAT	-0.228
ATCCATAA	0.113
GATGCATC	-0.0805
AAAGGCCC	-0.188
AGCATTCA	-0.179
AACTAATG	0.11

Sequence	PBM E-score
ATTCCTTA	0.043
ACCATTAA	0.0847
AACCCAGA	0.0947
TACGTCAA	0.111
CCTGAGCG	0.0569
CTGTGCAA	-0.111
CCGTGACC	-0.214
CACACATA	-0.0109
CAGTACTC	-0.184
GCAGTGAA	0.109
AACGGTGT	-0.343
CAGCACGG	0.166
ACGAGTAG	0.00592
AACTTATA	0.0912
ATCAGCGG	0.00888
TCTTCGAA	-0.106
CTAAGAAC	0.0873
CACATGAA	-0.0495
ATAAGAAC	0.269
GAAGGCTC	-0.117
CTGACGCA	-0.0763
CCACCGTA	0.147
AGGCTCTC	-0.0462
CCCTAGTC	-0.158
AAATACGG	0.149

Sequence	PBM E-score
TATTCTCA	-0.0338
GATTAGCC	-0.107
CAATGCCG	-0.29
ATACCAAT	-0.0179
AATTTGCC	-0.0288
CTTCGACC	-0.0571
TAGGGTCA	-0.126
ACATCGAC	-0.154
AATTTACT	0.155
CGGTGGGC	-0.106
CAACCTTG	-0.101
AGCAGTGC	-0.294
TTGCGCAA	-0.0464
TAGGCGGA	-0.147
AAGTATGT	-0.0902
CTTATTGC	0.0403
CAGGCGCA	-0.0694
AATAACAT	0.122
AGAACGTG	-0.192
CTCAGATA	0.137
AACTTCGA	0.117
ATATCCCG	-0.107
ATCCGAAG	0.104
AGGCGCAA	0.0238
TTCCGCAA	0.186

Sequence	PBM E-score
ATCCCACC	0.139
CGCATTTA	0.143
CCCAGAGG	0.0026
AGACCGCC	-0.139
ATCACCAA	0.0298
CCCGGACG	-0.0526
GTACCCAC	0.144
CGAACTAG	0.136
CAGTTTCA	0.0561
CGTCTATC	0.0717
CTTGTAGA	0.0507
GGTTCCGA	0.106
GAACCCTC	-0.138
CATAGTAC	-0.0462
GAACTTAA	0.0607
AGGCACGC	-0.177
TTAACGAA	0.0905
ATCATTGA	-0.0967
CTTCCGCC	0.022
ATGAGAGC	-0.173
GTATGACA	0.0344
GTAACATA	0.101
CCACTATC	0.368
GTTTGCTA	-0.0585
AAAGGGTC	-0.235

Sequence	PBM E-score
AGGGCACG	-0.128
GCTATCGA	-0.0891
GCGCGGCA	-0.0701
TACCGTAA	0.0593
CTCCTCAC	-0.0357
GTAGTCCA	-0.086
CTCAATAA	0.0502
TCAACACA	0.0452
AGTCCAAT	0.152
GCACTAGA	-0.158
ATACGTTA	-0.158
AACGATAG	-0.0512
ATCAGAGC	-0.0893
CTAGCCCC	-0.0102
CAAGCGAC	-0.0201
GCTTAGCA	-0.193
ACTCATAG	-0.0454
CCTCGGAA	0.0163
CCTCGTGC	-0.0611
ATCTTCAT	-0.0527
CTTGTTTC	0.0369
GATGAACA	-0.0607
ATCCGGAA	0.26
AACGACAC	-0.0852
ATAGTCCC	-0.253

Sequence	PBM E-score
AACTGCGT	0.172
ACATGGAT	-0.0474
CATCTTTA	0.114
AAAATTAT	0.0815
ACCCTCTA	0.0687
CGTTGTGA	-0.00763
AAGCCGGG	0.112
TCCCTACA	0.00308
AAAGGGGC	0.12
GAATACCA	0.143
GTAGGAAC	0.0386
TTAACCAA	-0.0373
GAAACGCA	-0.156
CTCAGGGC	-0.117
CTGCCTCC	-0.0884
CACAGAAA	-0.117
CCCAAGTC	-0.0913
CGGCATAA	-0.0776
GACTATGA	-0.12
CCTCTCAC	-0.23
AGCCAAAA	0.115
ACGTCGTC	0.0135
CACAATAC	0.085
TGCGTCCA	0.0639
AGTTCGTA	0.0517

Sequence	PBM E-score
CTTGGTTC	0.149
CAAACATG	0.0455
ACCTTGGC	-0.0788
CTATGGAA	0.181
ACATATCA	0.129
CTGGAAAG	0.0575
CGAGTGGC	-0.0703
CTTCCGCA	0.108
ATGCATCC	-0.00178
GAATCCTA	0.245
CTTGGTGC	0.116
CCCGGTAC	-0.0724
CCTGCACA	-0.138
ATGCATAA	0.047
ACCCTAAG	-0.0974
CATTCATA	0.0926
GCGACCAA	0.274
CGCGTAAA	0.191
AACGGCAA	-0.0694
CTAGGGCA	-0.124
AGTCTCGC	-0.154
AAAGCCTA	-0.27
TCTCTTCA	0.0625
TAGGTGAA	-0.109
ATGTGTTA	-0.00113

Sequence	PBM E-score
CTCCCCAG	-0.0641
GAAATGGA	0.036
ACTATGCT	0.0592
AGTTGTCG	0.0459
AACACATT	0.152
CAACACTA	0.122
AGGCGGCA	0.159
CCTAAGAC	-0.0669
GGCAACCC	0.176
CATGGTCG	-0.172
AGATGTCG	0.108
ACCCGCGA	-0.0673
AACTCGGG	0.0114
TGAGTAAA	-0.0118
ACTTGGAT	0.216
GGATAGGA	-0.00793
CGCGCCTA	0.258
GAGCAGAA	-0.105
ATCCGTAA	0.032
CGTGGAGC	-0.0506
CAGGAATG	0.115
TTAAATAA	0.164
ACAAGGCG	0.0767
TCGCGCAA	0.0621
GAGAAAAC	-0.02

Sequence	PBM E-score
AAATTACC	-0.0912
AGAGTAGC	-0.205
GAAAACGA	-0.00072
CTCAGAGC	-0.207
TGGTAACA	0.121
AAAAAAAT	0.261
GTATTATA	0.131
ATGAGTTC	-0.0799
ATAACCGG	-0.0295
AGACTATG	-0.147
TCCGACCA	-0.112
CTGCAGTC	-0.0408
TATCAGAA	0.0717
ATAATTGG	0.226
ATATGAAA	0.134
AATATAGT	0.234
CATTAATG	0.125
AGAGGCTC	0.00285
GAGATTAA	0.0329
ATTTGTTA	-0.0315
CCACAGTA	0.00082
ACGGGCAG	-0.128
CAATGCAC	-0.232
CAGTAATA	0.166
CGAGCGGA	-0.113

Sequence	PBM E-score
AATATGCC	-0.0464
CTTGGTAC	-0.0654
CTGATTAA	0.148
CTTTTCAC	-0.101
GGGACTAC	-0.0471
GGAAGGAC	-0.12
GAGTTAAA	-0.101
GACGCAGA	0.0512
GAGGGCGC	0.114
CATAGATG	-0.0229
GGAGAGCA	-0.0289
TGTCTAAA	0.00861
CGTCCAAG	-0.0458
ATCTTATC	0.208
GGGCGCTA	0.32
ATCCCAAG	0.111
ACCCACAC	-0.0404
CGCAGCAA	0.0303
AAATTGCT	-0.0445
AATCGTTC	-0.0317
ATCTGAAG	0.224
AGTTGATG	0.0862
CCTGGGTC	0.00723
AAGTACAG	-0.0329
GTAAGGGA	-0.219

Sequence	PBM E-score
AAACGGGT	0.136
GCAAACCC	-0.212
ACGACATA	-0.0239
AACGTTGC	0.136
AGCAGCGA	-0.153
CTTAATCA	0.00116
ACAATACT	-0.113
AAGCTTCA	-0.0647
CTAGGACA	0.0711
CGCGAGTC	-0.109
CGAGTGTA	-0.0172
ACACGGAT	-0.132
CCTATAGG	0.0723
CTTGCTGA	-0.266
CACCGCCC	-0.0346
CCGACTTC	0.2
GCATTTGA	0.0186
ACTTCGTC	-0.0295
AGTTCCGA	0.119
ACGGGGTA	0.129
AAGACTCT	-0.045
GGTTGTCA	0.0338
AGGACCTC	0.166
TGCATAAA	-0.00335
ATGACAAC	0.0345

Sequence	PBM E-score
GCTCAACA	-0.223
AAGCGACT	-0.0563
GTGGCGAA	0.0731
GAACAGCA	-0.107
ACAGTCGT	-0.255
CCGAGGAC	-0.0799
GAAACGTA	-0.078
CGCGGCAC	0.0545
ACTTGCCT	-0.045
CACGAAGC	0.311
GATGCGAC	0.0751
GTTTCCCA	0.0408
AAAATTCC	0.238
GGAACAAC	-0.0437
ATCCTGCC	-0.0891
ACGTTGGG	0.0445
GCTTACAC	-0.00529
CCGCTCAC	-0.0473
GGAGAGCC	-0.0346
AACGTGTC	-0.106
GAGGTAAA	-0.0518
GAGGGAAC	-0.0784
ACGGTATA	0.172
CCGTAACG	0.0354
TCAGGAGA	0.026

Sequence	PBM E-score
ACAATAGC	0.017
GTGCGGCA	-0.17
ACTTAAGA	0.139
CCGTCTGA	-0.184
CCGTTTGA	-0.0777
ATCAGCTA	-0.136
CGCTCACA	-0.0516
AGGACCTG	-0.0376
AGTTCAGA	-0.157
CTAGCCCA	-0.124
CTGGCGGA	-0.126
CGATGACA	-0.0193
AGGATGTC	0.275
GAAACATA	0.11
CTACAACA	-0.0445
ACTATTGC	0.0299
AAGTGAAA	0.191
GCGCGCCC	0.0734
GCGCACTA	0.0267
